Results published in article PMC4336329 (PLoS ONE, 2015).
Hit rate of the full screen: of about 310,000 compounds, about 14,000 (4.5%) showed an effect of 50% or more. The effect is printed as a negative number. The list shows a part of the results.

molecular target: human ether-à-go-go-related gene (hERG) potassium channel (human, UniProt Q12809); assay: primary screen, population patch clamp on CHO cells stably expressing hERG
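Also: peak tail current of the secondary pulse compared with the same well before compound.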

Chain of human ether-à-go-go-related gene (hERG) potassium channel (Q12809 whole entry, looked up): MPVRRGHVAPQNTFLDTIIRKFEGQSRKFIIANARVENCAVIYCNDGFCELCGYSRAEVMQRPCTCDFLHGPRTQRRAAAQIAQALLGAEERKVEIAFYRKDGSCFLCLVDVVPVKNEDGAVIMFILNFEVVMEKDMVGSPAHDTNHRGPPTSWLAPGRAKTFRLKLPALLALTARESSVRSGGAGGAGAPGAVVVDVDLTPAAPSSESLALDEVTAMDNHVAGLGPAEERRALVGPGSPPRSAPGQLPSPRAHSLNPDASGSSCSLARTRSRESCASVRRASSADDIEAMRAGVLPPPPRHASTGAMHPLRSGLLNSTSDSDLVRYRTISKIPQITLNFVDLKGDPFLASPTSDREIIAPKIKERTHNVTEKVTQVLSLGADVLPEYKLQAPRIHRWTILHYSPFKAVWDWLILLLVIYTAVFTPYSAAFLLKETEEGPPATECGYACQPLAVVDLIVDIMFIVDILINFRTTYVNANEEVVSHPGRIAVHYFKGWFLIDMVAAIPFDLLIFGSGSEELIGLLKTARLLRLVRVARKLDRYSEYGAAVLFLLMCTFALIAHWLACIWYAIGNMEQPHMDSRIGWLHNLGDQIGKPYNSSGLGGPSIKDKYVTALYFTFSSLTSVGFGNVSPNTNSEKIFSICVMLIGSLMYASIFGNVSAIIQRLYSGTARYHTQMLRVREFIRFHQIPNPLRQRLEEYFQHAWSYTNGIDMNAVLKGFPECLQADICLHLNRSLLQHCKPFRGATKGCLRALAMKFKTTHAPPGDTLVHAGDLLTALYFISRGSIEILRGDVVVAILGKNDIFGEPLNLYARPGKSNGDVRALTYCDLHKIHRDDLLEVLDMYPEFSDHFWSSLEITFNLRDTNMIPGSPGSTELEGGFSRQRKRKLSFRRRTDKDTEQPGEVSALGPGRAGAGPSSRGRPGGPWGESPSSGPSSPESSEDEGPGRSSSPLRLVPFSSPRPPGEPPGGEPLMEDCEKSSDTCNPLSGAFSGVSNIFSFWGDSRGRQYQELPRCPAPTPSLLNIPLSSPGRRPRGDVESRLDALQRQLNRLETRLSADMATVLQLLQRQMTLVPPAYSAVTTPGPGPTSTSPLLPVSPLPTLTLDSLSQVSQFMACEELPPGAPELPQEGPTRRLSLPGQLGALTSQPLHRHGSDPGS

Compared with CCOC(=O)CCC(NC(=O)CCCCC(=O)NC(CCC(=O)OCC)C(=O)OCC)C(=O)OCC (stereo not shown), CC(C)(C)OC(=O)NCCCC[C@@H](C(=O)NCCCCCCCCCCC(=O)N1CCN(C(=O)OC(C)(C)C)CC1)n1cc(CCCC(=O)O)nn1 is lower in “hERG current change (%, negative = inhibition) at 10uM” value: 8.74% for the first, 4.47% for the second.

Going from COCCSc1nnc(-c2cccc(C#N)c2)n1C to CCCCn1c(=O)[nH]c(=O)c2c1nc(-c1cccc(OC)c1)n2C, the “hERG current change (%, negative = inhibition) at 10uM” value falls from -1.52% to -3.16%.

Going from COc1ccccc1OCCC(=O)OCC(=O)Nc1ccc(S(=O)(=O)N2CCOCC2)cc1 to CC(=O)c1cccc(NC(=O)COC(=O)CCc2ccc(S(=O)(=O)N3CCOCC3)cc2)c1, the “hERG current change (%, negative = inhibition) at 10uM” value rises from -18.1% to 6.05%.

Going from O=C(NCCc1c[nH]c2ccccc12)c1cc(Cl)c2c(c1)OCO2 to Oc1[nH]c2ccccc2c1C=Nc1ccc2c(c1)OCO2, the “hERG current change (%, negative = inhibition) at 10uM” value falls from -0.615% to -0.727%.

First: CCCN1CCN(C(=S)Nc2ccc(S(N)(=O)=O)cc2)CC1
Second: Nc1ccc(S(N)(=O)=O)cc1
The “hERG current change (%, negative = inhibition) at 10uM” value of the first is higher: 32.6% for the first, 5.7% for the second.

First: COc1ccc(NC(=O)CN(C)S(=O)(=O)c2ccc3[nH]c(=O)oc3c2)cc1
Second: COc1ccc(C(=O)Nc2ccc(S(=O)(=O)Nc3ncccn3)cc2)cc1OC
The “hERG current change (%, negative = inhibition) at 10uM” value of the first is higher: 0.604% for the first, -9.94% for the second.

Going from Cc1ccc(NC(=O)CSc2ccc(-c3cccnc3)nn2)cc1Cl to CCC(=O)Nc1ccc(NC(=O)CSc2nnnn2CC)cc1C, the “hERG current change (%, negative = inhibition) at 10uM” value rises from -17.9% to 4.23%.

First: CCOC(=O)C1CCN(C(=O)CCN2C(=O)C3C4C=CC(C4)C3C2=O)CC1 (stereo not shown)
Second: CCOC(=O)C1CCN(c2cc3c(cc2NC(=O)c2ccccc2Br)n(C)c(=O)n3C)CC1
The “hERG current change (%, negative = inhibition) at 10uM” value of the first is higher: 7.09% for the first, -37% for the second.

Going from Cc1ccc(N(Cc2ccccc2)C(=O)c2cccc(S(=O)(=O)N3CCN(C)CC3)c2)cc1 to CN(Cc1ccccc1)C(=O)COC(=O)C1CCN(S(=O)(=O)c2ccc(Cl)c(C(F)(F)F)c2)CC1, the “hERG current change (%, negative = inhibition) at 10uM” value rises from -52.7% to -15.8%.

Compared with CC(=O)O[C@]1(C(C)=O)CCC2C3C=C(C)C4=CC(=O)CC[C@]4(C)C3CC[C@@]21C (stereo partly shown), O=C(NC(=S)Nc1ccc(Cl)cn1)C12CC3CC(CC(C3)C1)C2 is lower in “hERG current change (%, negative = inhibition) at 10uM” value: 0.054% for the first, -1.08% for the second.

First: Cc1ccc(-c2c(C(=O)N/N=C/c3cccs3)nnn2-c2nonc2N)cc1
Second: Cc1ccc(/C(N)=N/OC(=O)c2ccc(Cl)cc2Cl)cc1
The “hERG current change (%, negative = inhibition) at 10uM” value of the first is higher: 29.8% for the first, 1.37% for the second.

Going from Cc1ccc(C)c(N2CCN(C(=O)C3CCCN(c4ncnc5c4nc4n5CCCCC4)C3)CC2)c1 (stereo not shown) to CCOc1ccccc1NC(=O)C1CCCN(c2c(CC)c(C)nc3ncnn23)C1 (stereo not shown), the “hERG current change (%, negative = inhibition) at 10uM” value falls from -33.6% to -65.1%.

Compared with COC(=O)C1CCN(C(c2cc(OC)c(OC)c(OC)c2)c2sc3nc(C)nn3c2O)CC1 (stereo not shown), COc1ccc(-c2nnc3n2CCCCC3)cc1OC is higher in “hERG current change (%, negative = inhibition) at 10uM” value: 5.82% for the first, 13.6% for the second.

Going from Cc1[nH]n(-c2ccc([N+](=O)[O-])cc2)c(=O)c1C=NCCN1CCN(C(=O)c2ccccc2)CC1 to O=C1CC(N2CCN(C/C=C/c3ccccc3)CC2)C(=O)N1Cc1ccc(N2CCCC2=O)cc1 (stereo not shown), the “hERG current change (%, negative = inhibition) at 10uM” value rises from -71.6% to -46.7%.

Going from Cc1ccc([N+](=O)[O-])cc1NC(=O)CNC1CCCCC1 to Cc1ccc(C)c(OCCCCN2CCCCC2)c1.O=C(O)C(=O)O, the “hERG current change (%, negative = inhibition) at 10uM” value falls from 7.17% to -42.1%.

First: CS(=O)(=O)N1CCN(C(=O)c2ccccc2)C1
Second: Cc1ccnc(NC(=O)CCS(=O)(=O)c2ccccc2)c1
The “hERG current change (%, negative = inhibition) at 10uM” value of the first is lower: 18.2% for the first, 25.6% for the second.

First: C/C(=N/NC(=O)Cc1ccccc1)c1ccc(C)s1
Second: O=C(CNS(=O)(=O)c1ccc(F)cc1)Nc1ccccc1
The “hERG current change (%, negative = inhibition) at 10uM” value of the first is higher: 13% for the first, 9.25% for the second.

First: O=C(COC(=O)CN1C(=O)c2ccccc2C1=O)Nc1ccc(S(=O)(=O)N2CCCC2)cc1
Second: COc1ccccc1C(=O)Nc1ccc(N2CCN(C(C)=O)CC2)cc1
The “hERG current change (%, negative = inhibition) at 10uM” value of the first is lower: -15.5% for the first, 3.05% for the second.

Going from O=C(CN1CCN(c2ccccn2)CC1)N1c2ccccc2Sc2ccc(C(F)(F)F)cc21 to COc1ccccc1N1CCN(Cc2ccccc2)CC1.O=C(O)C(=O)O, the “hERG current change (%, negative = inhibition) at 10uM” value rises from -12.4% to -7.21%.

Going from O=C(C1CCCCC1)N1CCCc2ccccc21 to N#C/C(=C\c1ccc(O)c(O)c1)C(=O)N1CCc2ccccc21, the “hERG current change (%, negative = inhibition) at 10uM” value falls from -5.03% to -10.7%.

First: Cc1ccc(O)c(C(=O)c2cnn(C(=O)Cc3csc(C)n3)c2)c1
Second: Cc1ccc(NC(=O)c2cccc(NC(=O)CC3SC(N4CCCCC4)=NC3=O)c2)nc1 (stereo not shown)
The “hERG current change (%, negative = inhibition) at 10uM” value of the first is higher: -1.48% for the first, -2.74% for the second.

Compared with COc1ccc(/C=c2\s/c(=C\C(=O)C(C)(C)C)[nH]c2=O)cc1O, CCOc1cc(/C=C2\SC(=S)N(N3CCOCC3)C2=O)ccc1O is higher in “hERG current change (%, negative = inhibition) at 10uM” value: -5.93% for the first, 2.31% for the second.

Compared with COc1ccc(Cl)c(NC(=O)Nc2c(C)n(-c3ccccc3)c(=O)n2C)c1, Cc1nn(-c2ccccc2)c(=S)n1-c1ccccc1 is higher in “hERG current change (%, negative = inhibition) at 10uM” value: 8.98% for the first, 10.3% for the second.

First: CN(C)c1ccc(CN(C(=O)COc2ccc(F)cc2)C2CCS(=O)(=O)C2)cc1 (stereo not shown)
Second: COc1ccc(N(C(C)=O)S(=O)(=O)c2cccs2)cc1
The “hERG current change (%, negative = inhibition) at 10uM” value of the first is lower: -16.6% for the first, 7.03% for the second.

First: O=S1(=O)N=C(N/N=C/c2ccccn2)c2ccccc21
Second: CC(NC(=O)c1cnc2ccccc2n1)c1ccccc1 (stereo not shown)
The “hERG current change (%, negative = inhibition) at 10uM” value of the first is higher: 7.89% for the first, -16.7% for the second.

Compared with O=C(Nc1cccc(F)c1)/C(=C\c1cccnc1)NC(=O)c1cccs1, CC(=O)N/C(=C/c1ccccc1)C(=O)NC(Cc1ccccc1)C(=O)O (stereo not shown) is higher in “hERG current change (%, negative = inhibition) at 10uM” value: -2.63% for the first, 19.3% for the second.

Going from COC(=O)CN(C)C1CC(=O)N(c2ccc(Cl)cc2)C1=O (stereo not shown) to CC(=NCC1CCCO1)c1c(O)n(-c2ccc(Cl)cc2)c(=O)[nH]c1=O (stereo not shown), the “hERG current change (%, negative = inhibition) at 10uM” value falls from -9.9% to -14.6%.

First: CC(C)(C)c1ccc(C2(C)NC(=O)NC2=O)cc1 (stereo not shown)
Second: CCOC(=O)c1sc(=N)n(-c2ccc(OC)cc2)c1C
The “hERG current change (%, negative = inhibition) at 10uM” value of the first is higher: 13.3% for the first, -4.06% for the second.

Going from COc1ccccc1C(CNC(=O)C(CCSC)NS(=O)(=O)c1ccccc1F)N1CCCC1 (stereo not shown) to COc1ccccc1CNC(=O)CCS(=O)(=O)c1ccc2c(c1)CCCN2C(C)=O, the “hERG current change (%, negative = inhibition) at 10uM” value rises from -29.4% to -3.6%.

Compared with O=S(=O)(NCc1cccc(C(F)(F)F)c1)NCc1ccccc1F, O=C1Cc2ccccc2C(=O)N1Cc1cccc(Cl)c1 is higher in “hERG current change (%, negative = inhibition) at 10uM” value: -13.3% for the first, 11.5% for the second.

Compared with CCc1ccc(NC(=O)C2CCCN2c2nn3c(=O)cc(C)nc3s2)cc1 (stereo not shown), COCCC(=O)N1CCC(Oc2ccc(C(=O)NCc3cccc(C)n3)cc2)CC1 is higher in “hERG current change (%, negative = inhibition) at 10uM” value: -39.5% for the first, 14% for the second.

Going from Cc1cccc(Nc2nc(-c3ccc(F)cc3)cs2)n1 to CC1CC1C(=O)Nc1nc(-c2ccccc2)cs1 (stereo not shown), the “hERG current change (%, negative = inhibition) at 10uM” value falls from 9.58% to -6.6%.

Compared with N/C(=N\OC(=O)COc1ccc(Br)cc1)c1ccncc1, CCOC(=O)C(Nc1ccc2ccccc2c1)C(=O)OCC is lower in “hERG current change (%, negative = inhibition) at 10uM” value: 5.98% for the first, -6.39% for the second.

Going from COc1cc2c(cc1OC)C(c1ccccc1Br)NC(=O)C2 (stereo not shown) to COc1cccc(C2CC(=O)Nc3c2c(=O)n(C)c(=O)n3C)c1OC (stereo not shown), the “hERG current change (%, negative = inhibition) at 10uM” value rises from 10.4% to 17.7%.

Going from CN(C(=O)CCc1nnc(CCCCc2ccccc2)o1)C1CC(C)(C)NC(C)(C)C1 to COC(=O)CSc1nc(NCc2ccccc2)nc(N(C)C)n1, the “hERG current change (%, negative = inhibition) at 10uM” value rises from 7.98% to 21.3%.

Going from O=C(NCCc1ccc(F)cc1)C1CCCO1 (stereo not shown) to CCNC(=S)NC1CC2CCCC(C1)N2Cc1ccc(C)cc1 (stereo not shown), the “hERG current change (%, negative = inhibition) at 10uM” value falls from 0.132% to -48.1%.

Going from Cc1cc(C(=O)OCC(=O)NC(C)C)c(C)o1 to CC(C)CC(=O)N/C(N)=N/c1nc2ccccc2o1, the “hERG current change (%, negative = inhibition) at 10uM” value falls from 5.59% to 1.96%.

Compared with CCOC(=O)C1=C(C)OC(N)=C(C#N)C1c1ccc(C)s1 (stereo not shown), Cc1nc(SCC(=O)N(C)Cc2ccco2)c2c(C)c(C)sc2n1 is lower in “hERG current change (%, negative = inhibition) at 10uM” value: 24.8% for the first, -29.6% for the second.

Compared with COC(=O)Cc1c(C)c2cc(Cl)c(OC(=O)c3ccco3)cc2oc1=O, Cc1cc(C(=O)CSc2nnc(-c3ccco3)o2)c(C)n1-c1ccc2c(c1)OCCO2 is lower in “hERG current change (%, negative = inhibition) at 10uM” value: 11.7% for the first, 7.75% for the second.

Going from Cc1ccc(-c2nc(=S)c3c(n2CC2CCCO2)CC(C)(C)OC3)cc1 (stereo not shown) to CC1(OC(=O)C2CCCC2)C(=O)C=C2C=C(c3ccsc3)N(c3ccccc3)C=C2C1=O (stereo not shown), the “hERG current change (%, negative = inhibition) at 10uM” value rises from -14.8% to -0.738%.

Going from O=C(NCC(c1ccco1)N1CCc2ccccc2C1)c1cccc([N+](=O)[O-])c1 (stereo not shown) to Oc1ccc(/C=N/N2CCN(Cc3ccccc3)CC2)cc1, the “hERG current change (%, negative = inhibition) at 10uM” value rises from -67.2% to 7.33%.

Compared with Nc1cn(C2OC(CO)C(O)C2O)c(=O)[nH]c1=O (stereo not shown), O=C(CCC1CCN(C(=O)c2cc(C(F)(F)F)ccc2Cl)CC1)NC1CC1 is lower in “hERG current change (%, negative = inhibition) at 10uM” value: 14.4% for the first, -0.503% for the second.

Going from COCCNC(=O)Cn1c(=O)n(CCC(=O)NCCc2ccccc2)c(=O)c2ccccc21 to COc1cc(S(=O)(=O)n2cnc3ccccc32)ccc1Br, the “hERG current change (%, negative = inhibition) at 10uM” value rises from 7.75% to 13.7%.

Compared with O=C(Cn1cc2c(n1)CCCC2)NCc1cccnc1, CCNC(=S)NS(=O)(=O)c1ccc(Cl)cc1 is higher in “hERG current change (%, negative = inhibition) at 10uM” value: 6.69% for the first, 13.7% for the second.
